Laboratory results from the supplement of paper PMC10126150.
Values marked as one replicate rest on one cluster of the flow cell; about a third of the high ones do not repeat.

Test system: ATP
Test: switch fluorescence ratio, 500 uM ATP over buffer (Cy3 cluster intensity, sum of 5 cycles each) (fold (ratio)); higher = stronger signal-on switching upon ATP binding; sequences stand for … in TCGTCGGCAGCGTCAGATGTGTATAAGAGACAGTTTTTTTTTTTTTTTTTTTTTTTTT…TC
Conditions: aptamer strand: ATP DNA aptamer (quencher-CACCTGGGGGAGTATTGCGGAGGAAGG + anchor), 100 nM annealed; ATP concentration: 500 uM; one replicate
In short: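 Cy3-labelled switching-strand clusters on a modified Illumina MiSeq flow-cell were annealed to 100 nM quencher-labelled ATP aptamer, imaged in selection buffer, then imaged after 15 min with 500 uM ATP at 22 °C. Five buffer/ATP cycles ran, with NaOH stripping and re-annealing between them. The fluorescence ratio is summed target-cycle over summed buffer-cycle Cy3 intensity per cluster, averaged per switch-domain sequence. Clusters outside 100-1000 RFU were excluded.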
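Further: ATP exposure 15 min at 22 °C before imaging.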

Sequence	switch fluorescence ratio
CTGAGTCTGT	1.03
TTAAGGGCGG	1.05
CTAGTTGGAA	0.987
GAAGTTAATT	0.962
GGAGGAACTG	1
ATTCTAAGAA	0.987
CTATGAGCTG	0.989
ACGTAGAGTT	1.05
ACTACTTACT	1.28
GCCCGAGGAT	1.04
TGGTGCTTCC	1.73
CCAGCAGCGA	2.77
GTATGACCCA	1.01
ACACCGGTTT	1.07
AAGCACTTGT	1.04
ACCCATGTAT	1.03
GTTGTAAGGA	1.01
GTATGTGGC	0.927
GTGTTTCCCG	1.01
AAAAACGAGC	1.11
ACATTCAGCA	1.03
AAACGAGATT	0.998
GAGCGGGCTA	0.919
AGGACCGTCC	1.06
TAGAGCTCT	0.973
CGTTCTACAA	0.952

Sequence	switch fluorescence ratio
TTTGTGTCCT	1.43
CCACACCCCC	2.56
GCCCTCAGTA	1.05
AGAGTAAACA	1.02
TCGATACCAT	0.979
TTGCCCGTTC	0.945
GCATTAATTT	1.03
CACGAGATGG	1.06
CGTGTAATTA	1.02
TAAGATTTGA	0.963
CGTGCAACC	1.14
GTTAGCCAAT	0.986
TAGTTAGGGC	0.994
GGTACTTATA	1.01
GTAAAAATAT	1.15
GCGCCATTGC	1.2
TGATCGTGCG	0.94
TAGGCCACCG	1.04
TTACTCGTGT	0.989
ACACCGGGGT	1.02
ATTTTGTTAT	0.965
AGAGAGATAA	1.04
GCAGTAGATA	0.983
ATAGGTTTCA	0.981
CATTTGTGTG	0.983
GAGAAATGCT	1.13

Sequence	switch fluorescence ratio
CAAGACCAGG	1.06
ATGTGATTTT	1.02
AAAATGAACT	1.03
AATTTGAGGC	1.02
TAATTGCTAC	1.03
TCAGTCTCCT	1.02
AAAACAATT	1.02
ACCTATCCAT	1.01
GGCCTACAAA	1
CAAAAGGTTC	1.01
AGGGAGGATG	0.968
GCGTTATATG	1.02
CCTACGGTTT	1.61
TTCATCGGAC	1.02
GTGCGCAGTG	1.04
GAGCTATAAA	1
GCCCGAGGGA	0.991
AATGAAAACT	1.02
AGCCAGTTTA	0.992
CCTAACGTCA	1.25
CAATGTACCT	1.26
CCCGTACAAT	1.57
AAAACTCCTG	1.05
AGATCGATTT	1
TCACTTCCGT	1.16
GCTTGATGAT	1.01

Sequence	switch fluorescence ratio
CGTGCAATTG	1.21
GTGGGCACTG	0.959
AGGCCAATTT	0.934
AGCGTGGAAC	1.01
ATCAATCGTC	0.97
CGTATTCTG	1.01
TTCGACCTGA	1.11
ATTGTGGTA	0.972
AAGTGGCATT	0.994
GGGGCGAGGC	1.05
TTAGGTCGGA	1.01
AGAGATAATG	1.02
GTGGCAGGT	0.994
ACGAAGGGAT	0.996
GGTGGTAAGG	0.949
CGATAGTCTA	0.986
CCGCGCGCGG	2.01
AGGCAGGGG	1.05
TTCCTGGGTA	1.03
GTTTGTATTG	1.01
TATACCGGCA	1.04
CGACTATTAG	1.02
GCGTCATATG	0.993
GGGCAATGTT	1.01
TACATCCGAA	0.999
TCTGGGATAA	1.03

Sequence	switch fluorescence ratio
TTCTGTGCAT	1.28
CCGGAGTTGT	5.13
GTAAACGCTG	0.924
AGCGAATACG	1.63
CATCGGGTGT	1.23
TTCAACGCCT	1.08
GTGCTAGACT	1.01
CGTTTAGC	1.09
TTATGATTGC	0.975
AAGATTAAAA	1.1
GTAGAGTGAC	1.02
AATCCAGCGG	1.01
GGAGATACTT	1.06
GAGTAGGTCT	0.985
CGCCGCAGCG	1.32
TGGTATTCTA	0.992
CCGTACAGGT	1.14
GCCCGTCGTT	0.987
AATAACCTGT	1.09
GAAGTTGGA	1.01
CAACTTTTCG	0.986
ATAGGCCGCG	1.02
GGGTTATGTC	1.07
TTGACACTAG	0.978
AGCTTTCGAA	1.03
TGGGGGTTC	1.07

Sequence	switch fluorescence ratio
GCGGTTGGGA	0.963
TAAATAGTAA	1
AATGCACCCC	1.21
CCATTCCAGG	2.09
ATGTATTGAT	0.964
GTGAATCGCA	1.02
ACGACCACTT	1.39
GATGCGCAC	1.05
GCGTGATGAG	0.999
ACGTTGCATA	1.13
GATGACGAGA	1.04
GCATGCCCTT	1.02
GTAGATGAAT	1.02
AGTTCGGTTG	0.939
TCCGTCTATT	1.09
TGGAAGGACG	1.02
TGCGTTCGTA	1
TACCTTACAA	1.23
TTGTTGAAAG	0.953
GATAGTCTGA	1
GAGTCTGCTT	1.06
CCCCTCGGCC	1.2
TTCTCCTGGG	1.06
CCGAGTGATG	1.48
ATGTCACATT	0.994
TGTTACCGGT	0.965

Sequence	switch fluorescence ratio
GGCTCTCGT	1.02
CCAAGGGATT	0.992
CAGCGAAGTT	1.08
CTATATAACT	0.98
CAGGTTTACT	0.995
CTTTGTAAC	1.09
GTTCAACAGG	1.12
CTCTGCTACG	1.91
CTTTAAAATT	1.03
TCGCGTGAGA	1.06
GGTTGGTGTC	0.98
GATATAGGCC	0.989
GTTACTGT	1.04
ACGAGAGTTC	1.05
AGCCTGATTA	1.02
CATCCTGTGT	0.983
AGCGGTCGCC	0.958
GCTAATACGG	1.6
GGCCGTAGAC	1.17
AGAGATCATA	1.01
CGTAC	1.07
AAGTTTGCC	1.02
GGCTCAATGT	0.961
CATAACGATA	1.05
GATGCCGAGA	0.99
AGAGGACAGT	1

Sequence	switch fluorescence ratio
CGCGAATCTG	1.06
GCAGAGAGAG	0.983
AAGATCCATA	0.974
AATGATCCGG	1.03
GAAACCGCGC	3.16
AAATAGCTGG	0.973
GTAAAAAAGA	0.986
TAACAAAAAC	1.17
AATAGGTTTC	0.973
CATAATGATG	0.986
TTTGCATATT	0.99
AATGTAGCGA	1.1
AAAGGGCCG	1.06
AAGTATTCAC	1.07
AGGACATGTG	1.09
CCGGGCTTAA	1.61
GAATTGCAGC	0.975
ACCGTCGGGT	0.981
GACTTCAAGT	1.03
